# In PubChem BioAssay AID1347165 (National Center for Advancing Translational Sciences (NCATS), 2019):
# Where “and” joins values, the source holds several entries; their conditions need not be identical. Identical values can stand only once. In all, about 220,000 compounds went through this assay and about 5,700 (2.6%) were called active. Inconclusive means that the source gave no clear call. Such entries were picked first, then a sample of the others. The call rests on the fitted dose curve; in most records, active means well fitted inhibition curve with a large enough effect; inconclusive means small, poorly fitted or top-dose-only effect; inactive means no such curve, though single readings can be large or run the other way. Potencies of inconclusive entries are doubtful fits and often do not repeat.
# Target: Lysine-specific demethylase 5B (Homo sapiens) (UniProt Q9UGL1)
# Experiment: Primary screen for KDM5B Histone Demethylases FDH-coupled qHTS; further: nearly all actives have a fitted effect of over 70% in size
# Details: FDH-coupled NADH fluorescence (FDH is formaldehyde dehydrogenase); series mostly up to 57.7 µM
# How it was run: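 Coupled FDH/NAD⁺ fluorescence readout. KDM5BΔAP 200 nM final; compound titration, 10 min RT preincubation; substrate mix 12.5 µM H3K4me3, 25 µM 2-OG, 50 µM Fe(II), 100 µM ascorbate, 0.25 mM NAD⁺, 0.25 U/mL FDH; ΔRFU over 30 min.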
# Potency means the concentration at half of the fitted maximal effect; tags describe the fitted curve by direction and shape.
# UniProt Q9UGL1, sequence (Q9UGL1 whole entry, looked up): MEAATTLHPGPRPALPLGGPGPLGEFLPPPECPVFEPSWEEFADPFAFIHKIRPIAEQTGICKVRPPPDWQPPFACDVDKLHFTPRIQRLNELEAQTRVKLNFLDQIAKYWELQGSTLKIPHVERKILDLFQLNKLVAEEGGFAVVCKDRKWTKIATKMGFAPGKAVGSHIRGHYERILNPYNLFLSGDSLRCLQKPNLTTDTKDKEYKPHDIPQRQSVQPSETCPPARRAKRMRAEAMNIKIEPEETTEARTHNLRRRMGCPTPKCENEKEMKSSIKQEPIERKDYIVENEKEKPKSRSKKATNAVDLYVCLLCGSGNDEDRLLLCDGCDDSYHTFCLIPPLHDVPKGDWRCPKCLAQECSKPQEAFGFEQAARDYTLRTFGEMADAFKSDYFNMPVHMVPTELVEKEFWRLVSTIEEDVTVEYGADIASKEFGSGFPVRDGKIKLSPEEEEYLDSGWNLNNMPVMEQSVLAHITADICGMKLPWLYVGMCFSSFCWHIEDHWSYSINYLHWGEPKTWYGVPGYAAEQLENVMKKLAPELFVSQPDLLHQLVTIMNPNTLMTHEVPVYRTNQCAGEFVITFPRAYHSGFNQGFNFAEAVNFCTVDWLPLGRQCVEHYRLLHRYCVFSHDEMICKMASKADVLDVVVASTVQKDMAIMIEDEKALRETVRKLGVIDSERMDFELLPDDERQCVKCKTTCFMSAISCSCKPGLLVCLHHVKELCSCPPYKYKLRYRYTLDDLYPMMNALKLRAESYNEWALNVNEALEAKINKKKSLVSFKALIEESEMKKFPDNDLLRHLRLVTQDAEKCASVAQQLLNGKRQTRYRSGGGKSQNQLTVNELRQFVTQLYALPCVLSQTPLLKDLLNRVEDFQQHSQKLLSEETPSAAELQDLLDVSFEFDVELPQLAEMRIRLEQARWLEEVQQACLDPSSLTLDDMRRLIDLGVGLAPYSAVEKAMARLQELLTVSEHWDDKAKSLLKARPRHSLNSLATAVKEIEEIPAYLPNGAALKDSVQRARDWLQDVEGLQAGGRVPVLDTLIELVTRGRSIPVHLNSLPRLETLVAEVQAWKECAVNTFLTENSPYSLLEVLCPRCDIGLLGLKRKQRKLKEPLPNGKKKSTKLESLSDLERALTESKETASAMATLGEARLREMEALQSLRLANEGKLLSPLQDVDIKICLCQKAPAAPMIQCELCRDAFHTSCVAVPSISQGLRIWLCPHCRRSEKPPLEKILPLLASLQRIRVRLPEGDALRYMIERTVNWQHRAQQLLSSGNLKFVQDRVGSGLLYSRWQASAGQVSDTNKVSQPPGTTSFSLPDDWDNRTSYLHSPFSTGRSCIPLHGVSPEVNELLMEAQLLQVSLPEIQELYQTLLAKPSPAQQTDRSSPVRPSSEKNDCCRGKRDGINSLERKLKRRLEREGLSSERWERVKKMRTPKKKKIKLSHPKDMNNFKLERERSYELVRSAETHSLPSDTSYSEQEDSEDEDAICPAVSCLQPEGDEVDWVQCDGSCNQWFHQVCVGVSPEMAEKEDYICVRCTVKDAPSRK
row,Compound,Potency
1,CN(C)CCN(C)C(=O)c1ccc2c(c1)NC(C)(CCCCc1ccccc1)CO2 (centres undefined),inactive
2,Cc1ccc(F)cc1Nc1ncnc(N)c1[N+](=O)[O-],inactive
3,COC(=O)[C@@H]1Cc2nc[nH]c2CN1C1CCOCC1,"inconclusive: 35.5 µM [inhibitor, partial curve, poor fit]"
4,O=C(OCC(=O)N1CCOCC1)c1ccc(F)cc1Cl,inactive
5,O=C(NCc1ccc(Cl)cc1)c1ccc2cncn2c1,"inconclusive: 31.6 µM [inhibitor, partial curve, poor fit]"
6,Cn1ccc(NC(=O)C2(C)CN(Cc3ccccc3)Cc3ccc(N4CCOCC4)nc32)n1 (centres undefined),active: 11.2 µM
7,O=C(NCc1ccncc1)c1cc(C2CC2)nc2ccccc12,inactive
8,CCS(=O)(=O)n1nc(-c2ccco2)nc1NCc1ccc(C(C)C)cc1,"inconclusive: 20 µM [inhibitor, single point]"
9,c1cc(-c2n[nH]c(CC3CCNC3)n2)ccn1 (centres undefined),"inconclusive: 6.31 µM [inhibitor, partial curve]"
10,Cn1ncc2c(C(=O)N3CCCC3)cc(-c3ccc(Cl)nc3)nc21,"inconclusive: 100 µM [inhibitor, partial curve]"
11,CN1C(=O)CCc2cc(NC(=O)Cc3ccc(Cl)cc3)ccc21,"inconclusive: 17.8 µM [inhibitor, partial curve, poor fit]"
12,N#Cc1cccnc1NCCCNc1ccccn1,"inconclusive: 28.2 µM [inhibitor, partial curve, poor fit]"
13,CN(C1CCCCC1)S(=O)(=O)c1ccc2c(c1)c(=O)c(C(=O)N1CCN(c3ccc(F)cc3)CC1)cn2C,"inconclusive: 25.1 µM [inhibitor, partial curve, poor fit]"
14,COc1ccc(-c2cn3c(n2)sc2cc(C(=O)NCC(C)c4ccccc4)ccc23)cc1 (centres undefined),"inconclusive: 28.2 µM [inhibitor, partial curve, poor fit]"
15,CCOCCCNc1oc(-c2ccc(S(=O)(=O)N3CCOCC3)cc2)nc1C#N,inactive
16,C=CCC1(Nc2c(CC)cccc2CC)CCCCC1,inactive
17,Cn1ncc2c(N[C@H]3C[C@H]4C(=O)NCC(=O)N4C3)nc(C3CCCC3)nc21,inactive
18,Cc1ccc(CCNC(=O)c2cnc3c(C)cccn3c2=O)cc1,"inconclusive: 2.51 µM [inhibitor, full curve, poor fit]"
19,Cc1c(C#N)c(NC(=O)CN2CCNC(=O)C2)n(Cc2ccco2)c1C,inactive
20,CC(C)CCN1CCc2c(n(Cc3cccnc3)n(-c3ccccc3)c2=O)C1,"inconclusive: 39.8 µM [inhibitor, partial curve, poor fit]"
21,Cc1cc(C)c(S(=O)(=O)N2CCCC(C(=O)NC3CC3)C2)c(C)c1 (centres undefined),inactive
22,Cc1ccc2nc(-c3ccc(NC(=O)C(C)Sc4nncs4)cc3)sc2c1 (centres undefined),"inconclusive: 22.4 µM [inhibitor, partial curve, poor fit]"
23,O=C(CSc1ccc2ccccc2c1)Nc1ccc2c(c1)OCCO2,inactive

row,Compound,Potency
1,COc1ccc(N2CC3CCC(C2)N3Cc2ccc(Cl)cc2)cc1,inactive
2,O=Cc1ccc(OCc2ccc(Cl)cc2Cl)cc1,"inconclusive: 22.4 µM [inhibitor, partial curve, poor fit]"
3,COc1ccc(CCNC(=O)CN2C(=O)NC(c3ccc(Cl)cc3)C3=C2COC3=O)cc1OC (centres undefined),inactive
4,COc1cccc(-c2cn(C3CCN(C(=O)c4ccc(Cl)cc4)CC3)c(=O)[nH]2)c1,"inconclusive: 79.4 µM [inhibitor, partial curve, poor fit]"
5,CCCc1nc(CC)n2cc[nH]c(=O)c12,inactive
6,O=Cc1ccc(OCc2ccccc2)cc1,"inconclusive: 25.1 µM [inhibitor, partial curve, poor fit]"
7,Cc1ccccc1Cn1c(-c2cccs2)nc2ccccc21,"inconclusive: 35.5 µM [inhibitor, partial curve, poor fit]"
8,Cn1nc(C(=O)N2CCOCC2)cc1C(=O)Nc1cc(F)ccc1F,inactive
9,Cc1ccn2c(Nc3ccccc3C)c(-c3ccncc3)nc2c1,"inconclusive: 25.1 µM [inhibitor, single point]"
10,CCN(CCN(C)C)C(=O)Cn1ncc2c([nH]c3ccc(C)cc32)c1=O,"inconclusive: 31.6 µM [inhibitor, partial curve, poor fit]"
11,CCCCC(=O)Nc1ccc2oc(-c3ccc(OC)cc3)nc2c1,"inconclusive: 10 µM [inhibitor, partial curve, poor fit]"
12,O=C1c2nc3cc(-c4ccco4)[nH]n3c(=O)c2CN1Cc1ccccc1,"inconclusive: 28.2 µM [inhibitor, partial curve, poor fit]"
13,COc1ccc(/C=N/NC(=O)c2[nH]c3ccc(Cl)cc3c2-c2ccccc2)c(C(=O)O)c1OC,"inconclusive: 12.6 µM [inhibitor, partial curve, poor fit]"
14,COCCn1c(C)nnc1-c1cc(-c2ccc(OC)c(OC)c2)ccn1,active: 31.6 µM
15,Cc1ccc(F)c(C(=O)N[C@H](C2CCNCC2)C2CC(O)C2)c1Cl (some centres undefined),inactive
16,CN(C)CC(C)(C)CNC(=O)c1cc2cc(Cl)ccc2[nH]1,"inconclusive: 25.1 µM [inhibitor, single point]"
17,Cc1c(C(=O)Nc2ccc(F)c(C(F)(F)F)c2)sc2nc(-c3ccc(F)cc3)cn12,"inconclusive: 22.4 µM [inhibitor, single point]"
18,O=[S+]1([O-])NC2(CCN(CC3CCOCC3)CC2)COc2ccccc21,active: 79.4 µM
19,CSc1ccc(C2CC(=O)Nc3c2cnn3-c2nc3ccccc3s2)cc1 (centres undefined),inactive
20,O=C(CCn1c(=O)c2cccn2c2cccnc21)N1CCN(c2ccc(F)cc2)CC1,inactive
21,COc1ccc(CC(=O)Nc2nc(-c3nc4ccccc4s3)cs2)cc1,"inconclusive: 28.2 µM [inhibitor, single point]"
22,CC(C)n1nc(C(=O)NCc2cc3ccccc3[nH]2)c2ccccc2c1=O,inactive
23,COc1ccc(C(=O)Nc2ccc3nc(SCC(=O)N4CCCC4)sc3c2)cc1,"inconclusive: 35.5 µM [inhibitor, partial curve, poor fit]"

row,Compound,Potency
1,CC(=O)N1C[C@@H]2CCCN3CCC[C@@H]([C@H]23)[C@H]1CCCC(=O)NCCN1CCCCC1,active: 22.4 µM
2,COc1cccc(OCc2cc(C3C(C#N)=C(N)Oc4n[nH]c(C)c43)ccc2OC)c1 (centres undefined),"inconclusive: 25.1 µM [inhibitor, single point]"
3,COc1ccccc1CCNC(=O)Cn1ccc2cc(S(=O)(=O)N3CCCCC3)ccc21,"inconclusive: 39.8 µM [inhibitor, single point]"
4,Cc1noc(C)c1CN1CCNc2cc(Nc3cccnc3)ncc2C1,inactive
5,O[C@@H]1CN(CC2CCNCC2)CC[C@H]1c1ccc2ccccc2c1,"inconclusive: 28.2 µM [inhibitor, single point]"
6,CC(C)C(=O)Nc1ccc2c(C(C(=O)O)N3CCN(C=O)CC3)c[nH]c2c1 (centres undefined),inactive
7,CC(=O)c1cccc(NC(=O)C(Nc2ccc3oc(C)nc3c2)c2ccccc2)c1 (centres undefined),"inconclusive: 39.8 µM [inhibitor, single point]"
8,O=C(O)/C=C/c1ccc(-c2ccccc2)o1,"inconclusive: 25.1 µM [inhibitor, partial curve, poor fit]"
9,O=C(Nc1ccc(OC(F)(F)F)cc1)c1cc2c(=O)n3ccccc3nc2s1,"inconclusive: 10 µM [inhibitor, partial curve, poor fit]"
10,N#CC1CCN(C(=O)c2cc(=O)[nH]c3ccccc23)CC1,"inconclusive: 28.2 µM [inhibitor, partial curve, poor fit]"
11,Cc1ccc2c(=O)cc(C(=O)Nc3nc4ccc(C)cc4s3)oc2c1,inactive
12,COc1ccc(C(=O)c2sc(Nc3ccc(C)cc3)nc2N)cc1OC,"inconclusive: 39.8 µM [inhibitor, single point]"
13,COc1ccc(OC)c(CCNC(=O)C(CCS(C)(=O)=O)N2Cc3ccccc3C2=O)c1 (centres undefined),"inconclusive: 25.1 µM [inhibitor, partial curve, poor fit]"
14,CSCCC(NC(=O)c1ccccc1Cl)C(=O)N1CCN(C(c2ccccc2)c2ccccc2)CC1 (centres undefined),"inconclusive: 35.5 µM [inhibitor, partial curve, poor fit]"
15,Cc1ccc(NC(=O)c2cc3n(n2)CC(c2ccc4c(c2)OCO4)OC3)cc1 (centres undefined),active: 31.6 µM
16,COC(=O)c1cnc(Nc2cc(C)ccc2OC)c2ccccc12,"inconclusive: 31.6 µM [inhibitor, single point] and inconclusive: 39.8 µM [inhibitor, single point]"
17,O=C1CC(c2ccccc2)N(C(=O)C2CC2)CCCN(S(=O)(=O)c2cccnc2)CCN1 (centres undefined),inactive
18,CN1C(=O)c2ccc(NC(=O)c3cccc4ccccc34)cc2C1=O,"inconclusive: 28.2 µM [inhibitor, partial curve, poor fit]"
19,CCOC(=O)c1c(NC(=O)/C(C#N)=C/c2ccc(OC)cc2)sc2c1CCC2,inactive
20,COc1cc(-c2ccc(C)s2)cc2c1OCCNC2,"inconclusive: 25.1 µM [inhibitor, partial curve, poor fit]"
21,Cn1c(CCNC(=O)c2ccccc2C2CCNC2)nc2ccccc21 (centres undefined),"inconclusive: 11.2 µM [inhibitor, partial curve]"
22,Cc1cc(C)c2c(=O)cc(C(=O)NCC(c3cccs3)N3CCCC3)oc2c1 (centres undefined),inactive
23,CC1=C[C@@H](CNCc2ccccn2)[C@H](C(C)C)C[C@H]1Cc1nnc(-c2ccc(N(C)C)cc2)o1,"inconclusive: 25.1 µM [inhibitor, single point]"
